# The other results are listed elsewhere or left out.
# Legend:
# Assay in all cases: glycan array binding signal (z-score within array); higher = stronger binding
# Conditions in all cases: glycan notation: IUPAC condensed, linker removed; mutation: R144S
# [1] = molecular target: Gal(b1-3)GalNAc(a1-3)[Fuc(a1-2)]Gal(b1-4)GlcNAc
# In short: (§1)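 Glycan array data were curated from 3228 arrays in the Consortium for Functional Glycomics database and kept only where the protein sequence was available. Glycan names were converted to IUPAC-condensed notation, and columns mapping to the same glycan were averaged. The binding signal is a within-array Z-score, averaged across arrays of the same protein sequence at different concentrations or buffers and across linkers. Negative Z-scores can be read as non-binding.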
# [2] = molecular target: Gal(b1-3)GalNAc(b1-3)Gal(a1-4)Gal(b1-4)Glc
# In short: as §1
# [3] = molecular target: Gal(b1-3)GalNAc(b1-4)Gal(b1-4)Glc
# In short: as §1
# [4] = molecular target: Gal(b1-3)GalNAc(b1-4)[Neu5Ac(a2-3)]Gal(b1-4)Glc
# In short: as §1
# Gal(b1-3)GlcNAc = molecular target: Gal(b1-3)GlcNAc
# In short: as §1
# [5] = molecular target: Gal(b1-3)GlcNAc(a1-6)Gal(b1-4)GlcNAc
# In short: as §1
# [6] = molecular target: Gal(b1-3)GlcNAc(b1-2)Man(a1-3)[Gal(b1-3)GlcNAc(b1-2)Man(a1-6)]Man(b1-4)GlcNAc(b1-4)GlcNAc
# In short: as §1
# [7] = molecular target: Gal(b1-3)GlcNAc(b1-2)Man(a1-3)[Gal(b1-3)GlcNAc(b1-2)Man(a1-6)]Man(b1-4)GlcNAc(b1-4)[Fuc(a1-6)]GlcNAc
# In short: as §1
# [8] = molecular target: Gal(b1-3)GlcNAc(b1-3)Gal(b1-3)GlcNAc
# In short: as §1
# [9] = molecular target: Gal(b1-3)GlcNAc(b1-3)Gal(b1-4)Glc
# In short: as §1
# [10] = molecular target: Gal(b1-3)GlcNAc(b1-3)Gal(b1-4)GlcNAc
# In short: as §1
# [11] = molecular target: Gal(b1-3)GlcNAc(b1-3)Gal(b1-4)GlcNAc(b1-6)[Gal(b1-3)GlcNAc(b1-3)]Gal(b1-4)Glc
# In short: as §1
# [12] = molecular target: Gal(b1-3)GlcNAc(b1-3)Gal(b1-4)[Fuc(a1-3)]GlcNAc(b1-6)[Gal(b1-3)GlcNAc(b1-3)]Gal(b1-4)Glc
# In short: as §1
# [13] = molecular target: Gal(b1-3)GlcNAc(b1-3)GalNAc
# In short: as §1
# [14] = molecular target: Gal(b1-3)GlcNAc(b1-6)Gal(b1-4)GlcNAc
# In short: as §1
# [15] = molecular target: Gal(b1-3)[Fuc(a1-4)]GlcNAc
# In short: as §1
# [16] = molecular target: Gal(b1-3)[Fuc(a1-4)]GlcNAc(b1-2)Man(a1-3)[Gal(b1-3)[Fuc(a1-4)]GlcNAc(b1-2)Man(a1-6)]Man(b1-4)GlcNAc(b1-4)GlcNAc
# In short: as §1
# [17] = molecular target: Gal(b1-3)[Fuc(a1-4)]GlcNAc(b1-2)Man(a1-3)[Gal(b1-3)[Fuc(a1-4)]GlcNAc(b1-2)Man(a1-6)]Man(b1-4)GlcNAc(b1-4)[Fuc(a1-6)]GlcNAc
# In short: as §1
# [18] = molecular target: Gal(b1-3)[Fuc(a1-4)]GlcNAc(b1-3)Gal(b1-3)[Fuc(a1-4)]GlcNAc
# In short: as §1
# [19] = molecular target: Gal(b1-3)[Fuc(a1-4)]GlcNAc(b1-3)Gal(b1-4)GlcNAc
# In short: as §1
# [20] = molecular target: Gal(b1-3)[Fuc(a1-4)]GlcNAc(b1-3)Gal(b1-4)[Fuc(a1-3)]GlcNAc
# In short: as §1
# [21] = molecular target: Gal(b1-3)[GlcNAc(b1-6)]GalNAc
# In short: as §1
# [22] = molecular target: Gal(b1-3)[Neu5Ac(a2-6)]GalNAc
# In short: as §1
# [23] = molecular target: Gal(b1-3)[Neu5Ac(a2-6)]GlcNAc(b1-6)Gal(b1-4)Glc
# In short: as §1
# [24] = molecular target: Gal(b1-3)[Neu5Ac(b2-6)]GalNAc
# In short: as §1
# [25] = molecular target: Gal(b1-4)GalNAc(a1-3)[Fuc(a1-2)]Gal(b1-4)GlcNAc
# In short: as §1
# [26] = molecular target: Gal(b1-4)GalNAc(b1-3)[Fuc(a1-2)]Gal(b1-4)GlcNAc
# In short: as §1
# Gal(b1-4)Glc = molecular target: Gal(b1-4)Glc
# In short: as §1
# Gal(b1-4)Glc6S = molecular target: Gal(b1-4)Glc6S
# In short: as §1
# Gal(b1-4)GlcNAc = molecular target: Gal(b1-4)GlcNAc
# In short: as §1
# [27] = molecular target: Gal(b1-4)GlcNAc(a1-6)Gal(b1-4)GlcNAc
# In short: as §1
# [28] = molecular target: Gal(b1-4)GlcNAc(b1-2)Man(a1-3)Man(b1-4)GlcNAc(b1-4)GlcNAc
# In short: as §1
# [29] = molecular target: Gal(b1-4)GlcNAc(b1-2)Man(a1-3)[Gal(b1-4)GlcNAc(b1-2)Man(a1-6)]Man(b1-4)GlcNAc(b1-4)GlcNAc
# In short: as §1
# [30] = molecular target: Gal(b1-4)GlcNAc(b1-2)Man(a1-3)[Gal(b1-4)GlcNAc(b1-2)Man(a1-6)]Man(b1-4)GlcNAc(b1-4)[Fuc(a1-6)]GlcNAc
# In short: as §1
# [31] = molecular target: Gal(b1-4)GlcNAc(b1-2)Man(a1-3)[GlcNAc(b1-2)Man(a1-6)]Man(b1-4)GlcNAc(b1-4)GlcNAc
# In short: as §1
# [32] = molecular target: Gal(b1-4)GlcNAc(b1-2)Man(a1-3)[Man(a1-6)]Man(b1-4)GlcNAc(b1-4)GlcNAc
# In short: as §1
# [33] = molecular target: Gal(b1-4)GlcNAc(b1-2)Man(a1-6)Man(b1-4)GlcNAc(b1-4)GlcNAc
# In short: as §1
binder,measurement,setting,value
"Gal 3 (Homo sapiens), P17931 (protein) MADNFSLHDALSGSGNPNPQGWPGAWGNQPAGAGGYPGASYPGAYPGQAPPGAYPGQAPPGAYHGAPGAYPGAPAPGVYPGPPSGPGAYPSSGQPSAPGAYPATGPYGAPAGPLIVPYNLPLPGGVVPRMLITILGTVKPNANSILDFQRGNDVAFHFNPRFNENNRRVIVCNTKLDNNWGREERQSVFPFESGKPFKIQVLVEPDHFKVAVNDAHLLQYNHRVKKLNEISKLGISGDIDLTSASYTMI",glycan array binding signal (z-score),[1],4.94
same,glycan array binding signal (z-score),[2],-0.358
same,glycan array binding signal (z-score),[3],-0.354
same,glycan array binding signal (z-score),[4],-0.362
same,glycan array binding signal (z-score),Gal(b1-3)GlcNAc,-0.219
same,glycan array binding signal (z-score),[5],-0.356
same,glycan array binding signal (z-score),[6],0.579
same,glycan array binding signal (z-score),[7],0.151
same,glycan array binding signal (z-score),[8],0.334
same,glycan array binding signal (z-score),[9],0.562
same,glycan array binding signal (z-score),[10],0.9
same,glycan array binding signal (z-score),[11],0.34
same,glycan array binding signal (z-score),[12],1.36
same,glycan array binding signal (z-score),[13],-0.361
same,glycan array binding signal (z-score),[14],-0.205
same,glycan array binding signal (z-score),[15],-0.355
same,glycan array binding signal (z-score),[16],-0.346
same,glycan array binding signal (z-score),[17],-0.349
same,glycan array binding signal (z-score),[18],-0.362
same,glycan array binding signal (z-score),[19],0.027
same,glycan array binding signal (z-score),[20],-0.357
same,glycan array binding signal (z-score),[21],-0.36
same,glycan array binding signal (z-score),[22],-0.352
same,glycan array binding signal (z-score),[23],-0.358
same,glycan array binding signal (z-score),[24],-0.347
same,glycan array binding signal (z-score),[25],5.09
same,glycan array binding signal (z-score),[26],-0.357
same,glycan array binding signal (z-score),Gal(b1-4)Glc,-0.362
same,glycan array binding signal (z-score),Gal(b1-4)Glc6S,-0.357
same,glycan array binding signal (z-score),Gal(b1-4)GlcNAc,-0.346
same,glycan array binding signal (z-score),[27],-0.019
same,glycan array binding signal (z-score),[28],0.468
same,glycan array binding signal (z-score),[29],0.995
same,glycan array binding signal (z-score),[30],0.5
same,glycan array binding signal (z-score),[31],0.483
same,glycan array binding signal (z-score),[32],0.359
same,glycan array binding signal (z-score),[33],-0.102
